Results on 115 sequences are retold here after the BET-seq Pho4 binding data (Le et al. 2018).

Some of the results follow. These are noisy estimates, calculated here from bound and input reads.

For the assay, the target named is T1, Pho4 (S. cerevisiae) (UniProt P07270).
T1 sequence: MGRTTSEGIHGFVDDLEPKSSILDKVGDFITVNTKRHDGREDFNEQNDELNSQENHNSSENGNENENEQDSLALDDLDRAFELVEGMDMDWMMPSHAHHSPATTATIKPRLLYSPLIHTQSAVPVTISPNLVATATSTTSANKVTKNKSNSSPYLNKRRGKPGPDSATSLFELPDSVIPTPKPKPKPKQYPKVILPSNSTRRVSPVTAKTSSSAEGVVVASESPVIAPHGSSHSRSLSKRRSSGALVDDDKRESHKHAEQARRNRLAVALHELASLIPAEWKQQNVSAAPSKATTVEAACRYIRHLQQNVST
Put plainly: relative binding free energy (BET-seq); higher = weaker binding. The conditions noted are these: reference: library average.
For TGAATCACGTGATAAG, the “relative binding free energy” value was 1.09 kJ/mol.

Regarding TTAAGCACGTGAGCTT, the “relative binding free energy” value stood at 0.92 kJ/mol.

Consider ATATTCACGTGGGAAG, for which the “relative binding free energy” value amounted to 0.502 kJ/mol.

On to CTGTACACGTGAGGGG, for which the “relative binding free energy” value worked out at 1.26 kJ/mol.

In the case of CATTACACGTGTGTGT, the “relative binding free energy” value was found to be 0.586 kJ/mol.

Consider TTGAACACGTGTGAGA, for which the “relative binding free energy” value was 0.335 kJ/mol.

For TGTATCACGTGTTTCG, the “relative binding free energy” value is 0.711 kJ/mol.

TGTCCCACGTGATGGG: the “relative binding free energy” value is 0.418 kJ/mol.

Turning to TTATACACGTGTGGGA, the “relative binding free energy” value amounted to 0.418 kJ/mol.

In the case of GATAGCACGTGGTCAT, the “relative binding free energy” value is 0.251 kJ/mol.

Regarding AGGTTCACGTGGTTAC, the “relative binding free energy” value was 0.795 kJ/mol.

Turning to ATAAGCACGTGGTGTT, the “relative binding free energy” value was -0.628 kJ/mol.

For GTTGACACGTGAGATG, the “relative binding free energy” value was determined as 0.837 kJ/mol.

In the case of ATGAGCACGTGATAGG, the “relative binding free energy” value is 0.167 kJ/mol.

As for AGGTTCACGTGATAGT, the “relative binding free energy” value was determined as 1.34 kJ/mol.

In the case of TTCATCACGTGGTATA, the “relative binding free energy” value was 0.502 kJ/mol.

Turning to CGGAGCACGTGTGGAA, the “relative binding free energy” value came to 0.167 kJ/mol.

As to TAAAGCACGTGCGTGG, the “relative binding free energy” value is -0.837 kJ/mol.

In the case of GGGTACACGTGGGTGT, the “relative binding free energy” value is -0.0837 kJ/mol.

Consider CTAGGCACGTGGGGAT, for which the “relative binding free energy” value is -0.837 kJ/mol.

In the case of GTTGGCACGTGTAGGT, the “relative binding free energy” value worked out at 0.293 kJ/mol.

On to AATCTCACGTGGGGGC, for which the “relative binding free energy” value was 0.586 kJ/mol.

For TATGTCACGTGGATCT, the “relative binding free energy” value came out at 0.126 kJ/mol.

In the case of GGGAACACGTGTTTGA, the “relative binding free energy” value was 0.209 kJ/mol.

With GTACACACGTGTGTGT, the “relative binding free energy” value was 0.251 kJ/mol.

Consider AAGTGCACGTGCTTGG, for which the “relative binding free energy” value is -0.251 kJ/mol.

For AAAAGCACGTGATGGA, the “relative binding free energy” value amounted to 0.879 kJ/mol.

As for AGTTGCACGTGGGCCT, the “relative binding free energy” value is -0.669 kJ/mol.

As to GGATTCACGTGTGGCG, the “relative binding free energy” value was determined as 1.05 kJ/mol.

With GGATACACGTGGATGA, the “relative binding free energy” value stood at 0.544 kJ/mol.

As to GAGGGCACGTGGGGAG, the “relative binding free energy” value is -0.418 kJ/mol.

With GTCTTCACGTGGGGCG, the “relative binding free energy” value is 0 kJ/mol.

As to GAAGGCACGTGGGGTG, the “relative binding free energy” value was -0.837 kJ/mol.

Turning to CGTTTCACGTGAATGG, the “relative binding free energy” value stood at 1.13 kJ/mol.

Regarding AGTTTCACGTGCGTAT, the “relative binding free energy” value worked out at 1.09 kJ/mol.

Consider GAGGACACGTGAGTGG, for which the “relative binding free energy” value was found to be 1.42 kJ/mol.

Take TTCTTCACGTGCTTTT: the “relative binding free energy” value came to 1.42 kJ/mol.

For TGTTACACGTGACAGT, the “relative binding free energy” value amounted to 0.293 kJ/mol.

TATATCACGTGGAGAT: the “relative binding free energy” value worked out at 0.879 kJ/mol.

For TTATGCACGTGGATGT, the “relative binding free energy” value was -0.669 kJ/mol.

With CTCGTCACGTGATTTG, the “relative binding free energy” value came out at 0.92 kJ/mol.

On to GGGTTCACGTGGTCTG, for which the “relative binding free energy” value was determined as 0.628 kJ/mol.

Regarding AGGTTCACGTGAGAGC, the “relative binding free energy” value is 2.13 kJ/mol.

Regarding CTGAGCACGTGGGAAT, the “relative binding free energy” value is -0.167 kJ/mol.

Consider CTGTGCACGTGAAGCG, for which the “relative binding free energy” value came to 1.21 kJ/mol.

For the sequence TATGCCACGTGTGTGA, the “relative binding free energy” value is -0.0418 kJ/mol.

For the sequence GTTGGCACGTGTTTTA, the “relative binding free energy” value worked out at 0.167 kJ/mol.

In the case of GGACTCACGTGCGGGG, the “relative binding free energy” value amounted to 0.837 kJ/mol.

On to TTTGTCACGTGGAATA, for which the “relative binding free energy” value worked out at 0.586 kJ/mol.

TTAGTCACGTGGGCGT: the “relative binding free energy” value was -0.251 kJ/mol.

For the sequence ACGGTCACGTGTTAAG, the “relative binding free energy” value turned out to be 0.711 kJ/mol.

GCGCGCACGTGTTGGG: the “relative binding free energy” value turned out to be 0 kJ/mol.

Consider GGTTACACGTGCGGTG, for which the “relative binding free energy” value was 0.418 kJ/mol.

Consider GGATGCACGTGTGTGT, for which the “relative binding free energy” value was -0.0837 kJ/mol.

TGACTCACGTGGGCTG: the “relative binding free energy” value turned out to be 0.586 kJ/mol.

On to GGAATCACGTGGAGTG, for which the “relative binding free energy” value was 0.335 kJ/mol.

With TAAGTCACGTGATGAT, the “relative binding free energy” value is 0.962 kJ/mol.

In the case of GTTTACACGTGTAATA, the “relative binding free energy” value came to 0.669 kJ/mol.

Turning to TTTATCACGTGTTGGA, the “relative binding free energy” value amounted to 0.669 kJ/mol.

With TTGCGCACGTGAGTTT, the “relative binding free energy” value was determined as 0.753 kJ/mol.

Turning to TCGATCACGTGTGTGG, the “relative binding free energy” value came out at 0.544 kJ/mol.

As to GTTATCACGTGCGTGA, the “relative binding free energy” value stood at 0.251 kJ/mol.

Consider ATTGTCACGTGTCGTG, for which the “relative binding free energy” value was determined as 0.377 kJ/mol.

With TGGTTCACGTGATTAT, the “relative binding free energy” value was determined as 1.8 kJ/mol.

For the sequence TACAGCACGTGGTTGG, the “relative binding free energy” value is -0.251 kJ/mol.

Consider GGTGACACGTGCGGAG, for which the “relative binding free energy” value was -0.293 kJ/mol.

For the sequence GGTGGCACGTGTGTAA, the “relative binding free energy” value came to 0.209 kJ/mol.

ATAAGCACGTGGGAAT: the “relative binding free energy” value is -0.544 kJ/mol.

As to AAAGGCACGTGGAGTT, the “relative binding free energy” value is -0.502 kJ/mol.

Regarding TGTTGCACGTGATACT, the “relative binding free energy” value was 0 kJ/mol.

Take TTAAGCACGTGCATTT: the “relative binding free energy” value is -0.418 kJ/mol.

In the case of GTTCTCACGTGTGGGG, the “relative binding free energy” value was determined as 1.17 kJ/mol.

Take AGTGTCACGTGATCTA: the “relative binding free energy” value was 0.711 kJ/mol.

With GGGGACACGTGGTGTT, the “relative binding free energy” value was -0.0418 kJ/mol.

With TTGAGCACGTGCGAAG, the “relative binding free energy” value is -0.0418 kJ/mol.

Take ATATTCACGTGTGCTT: the “relative binding free energy” value worked out at 0.251 kJ/mol.

In the case of AGGCCCACGTGGGGTG, the “relative binding free energy” value was -1.13 kJ/mol.

Take ATACTCACGTGAGGTA: the “relative binding free energy” value turned out to be 1.92 kJ/mol.

For the sequence ATAGGCACGTGTGCAT, the “relative binding free energy” value is -0.209 kJ/mol.

On to GCGGGCACGTGTAAGG, for which the “relative binding free energy” value was -0.46 kJ/mol.

Consider GTAGTCACGTGTGCTA, for which the “relative binding free energy” value turned out to be 0.335 kJ/mol.

As to CATGGCACGTGTATTA, the “relative binding free energy” value stood at 0.167 kJ/mol.

As for CTTGTCACGTGGTCGT, the “relative binding free energy” value is -0.251 kJ/mol.

Consider TAATGCACGTGTTTAA, for which the “relative binding free energy” value is -0.628 kJ/mol.

Take AGTAACACGTGGGAAG: the “relative binding free energy” value is -0.0418 kJ/mol.

With CTAGCCACGTGGGGGT, the “relative binding free energy” value was -1.13 kJ/mol.

In the case of AGCATCACGTGAGGGA, the “relative binding free energy” value worked out at 1.42 kJ/mol.

Consider TTTTGCACGTGCATTT, for which the “relative binding free energy” value is 0.335 kJ/mol.

Consider TCTGGCACGTGTGAGG, for which the “relative binding free energy” value was -0.0418 kJ/mol.

Consider TTAATCACGTGGTAAA, for which the “relative binding free energy” value worked out at 0.377 kJ/mol.

With CTATGCACGTGGAGTT, the “relative binding free energy” value was -0.502 kJ/mol.

On to TAATTCACGTGTTGGC, for which the “relative binding free energy” value was 1.13 kJ/mol.

For AAGTTCACGTGGGTGA, the “relative binding free energy” value came out at 0.711 kJ/mol.

Take TTGGGCACGTGCTGCT: the “relative binding free energy” value is -1.05 kJ/mol.

Turning to TGTTTCACGTGCTGTA, the “relative binding free energy” value was found to be 0.753 kJ/mol.

For GGTTTCACGTGTTTGA, the “relative binding free energy” value stood at 1.42 kJ/mol.

Take ATTTGCACGTGGTGTA: the “relative binding free energy” value was -0.46 kJ/mol.

Take AGTGACACGTGTAAAG: the “relative binding free energy” value stood at 0.711 kJ/mol.

On to TGTTACACGTGGGTAA, for which the “relative binding free energy” value was found to be 0.0837 kJ/mol.

For the sequence AGTTGCACGTGGATGA, the “relative binding free energy” value was determined as 0.126 kJ/mol.

With GGGGTCACGTGTTGCG, the “relative binding free energy” value was 0.377 kJ/mol.

For the sequence TTTTGCACGTGAAGTT, the “relative binding free energy” value was found to be 1 kJ/mol.

For the sequence GCTTTCACGTGGAGTG, the “relative binding free energy” value worked out at 1.13 kJ/mol.

As to TAGTGCACGTGGACGG, the “relative binding free energy” value was -0.586 kJ/mol.

TGGGACACGTGTGGCT: the “relative binding free energy” value stood at 0.46 kJ/mol.

Turning to TCGATCACGTGGAGGA, the “relative binding free energy” value worked out at 0.962 kJ/mol.

With TATATCACGTGTTAAT, the “relative binding free energy” value turned out to be 0.167 kJ/mol.

Regarding GTGTGCACGTGAGATT, the “relative binding free energy” value came to 1.76 kJ/mol.

As for GTTGGCACGTGCGTAA, the “relative binding free energy” value is -0.628 kJ/mol.

Turning to AGCGGCACGTGCTTTG, the “relative binding free energy” value is -0.0418 kJ/mol.

On to TGAATCACGTGGATAG, for which the “relative binding free energy” value was found to be 0.544 kJ/mol.

CTGCGCACGTGTTGTG: the “relative binding free energy” value was -0.795 kJ/mol.

On to AGGGTCACGTGCAAAG, for which the “relative binding free energy” value is 1.05 kJ/mol.

Consider TTTCTCACGTGTTCTA, for which the “relative binding free energy” value came out at 1.09 kJ/mol.

As to CTTTGCACGTGTGATG, the “relative binding free energy” value worked out at 0.0837 kJ/mol.
